The list shows a part of the results.
B1: PhoQ; a variant is named by its letters at X, in order, P23837 (parent)
chain: MKKLLRLFFPLSLRVRFLLATAAVVLVLSLAYGMVALIGYSVSFDKTTFRLLRGESNLFYTLAKWENNKLHVELPENIDKQSPTMTLIYDENGQLLWAQRDVPWLMKMIQPDWLKSNGFHEIEADVNDTSLLLSGDHSIQQQLQEVREDDDDAEMTHSVAVNVYPATSRMPKLTIVVVDTIPVELKSSYMVWSWFIYVLSANLLLVIPLLWVAAWWSLRPIEALAKEVRELEEHNRELLNPATTRELTSLVRNLNRLLKSERERYDKYRTTLTDLTHSLKTPLXXLQXXLRSLRSEKMSVSDAEPVMLEQISRISQQIGYYLHRASMRGGTLLSRELHPVAPLLDNLTSALNKVYQRKGVNISLDISPEISFVGEQNDFVEVMGNVLDNACKYCLEFVEISARQTDEHLYIVVEDDGPGIPLSKREVIFDRGQRVDTLRPGQGVGLAVAREITEQYEGKIVAGESMLGGARMEVIFGRQHSAPKDE

Variants of: B1
Experiment: enrichment ratio after two sorts for PhoP signalling (ratio (wild type AVST 3.29)); higher = more functional
Conditions: with PhoP (E. coli)

Row | Variant | enrichment ratio
1 | QWLL | ≤ 0.25
2 | LRKI | ≤ 0.25
3 | YRFM | ≤ 0.25
4 | FRVN | ≤ 0.25
5 | ASSQ | 14.5
6 | GDRV | ≤ 0.25
7 | ETLH | ≤ 0.25
8 | ANWL | ≤ 0.25
9 | AHQC | ≤ 0.25
10 | KACY | ≤ 0.25
11 | YNMI | 0.268
12 | GYKV | ≤ 0.25
13 | VHYQ | ≤ 0.25
14 | RVFN | ≤ 0.25
15 | HYED | ≤ 0.25
16 | TMPT | ≤ 0.25
17 | RVKV | ≤ 0.25
18 | PCDK | ≤ 0.25
19 | MPDA | ≤ 0.25
20 | KMRT | ≤ 0.25
21 | FPHI | ≤ 0.25
22 | HCQP | ≤ 0.25
23 | KMDT | ≤ 0.25
24 | ARNQ | ≤ 0.25
25 | EDVW | ≤ 0.25
26 | PNLD | ≤ 0.25

Row | Variant | enrichment ratio
27 | AWIS | ≤ 0.25
28 | QIWP | ≤ 0.25
29 | CLGP | ≤ 0.25
30 | TMFG | 1.38
31 | WSKI | ≤ 0.25
32 | LWVP | ≤ 0.25
33 | NVYF | ≤ 0.25
34 | RYEA | ≤ 0.25
35 | RPVV | ≤ 0.25
36 | HPWL | ≤ 0.25
37 | LIQW | ≤ 0.25
38 | MFMM | ≤ 0.25
39 | VAHV | ≤ 0.25
40 | EHYQ | ≤ 0.25
41 | AMLW | ≤ 0.25
42 | WLFK | ≤ 0.25
43 | WQTK | ≤ 0.25
44 | AIME | 1.65
45 | HYYP | ≤ 0.25
46 | GNSP | ≤ 0.25
47 | FSPY | ≤ 0.25
48 | LWSK | ≤ 0.25
49 | VRRD | ≤ 0.25
50 | QQGS | 6.17
51 | YETK | ≤ 0.25
52 | HFQD | ≤ 0.25

Row | Variant | enrichment ratio
53 | IYLH | ≤ 0.25
54 | WNKH | ≤ 0.25
55 | WFFI | ≤ 0.25
56 | WMPA | ≤ 0.25
57 | QAIK | ≤ 0.25
58 | NQMT | ≤ 0.25
59 | QRTM | ≤ 0.25
60 | EQQR | ≤ 0.25
61 | QRLG | ≤ 0.25
62 | SAWL | 2.19
63 | IRKC | ≤ 0.25
64 | SIRM | ≤ 0.25
65 | KMSM | ≤ 0.25
66 | PVGF | ≤ 0.25
67 | DAFL | ≤ 0.25
68 | IWFT | ≤ 0.25
69 | FYGT | ≤ 0.25
70 | FYNA | ≤ 0.25
71 | MQPK | ≤ 0.25
72 | NEYD | ≤ 0.25
73 | RESW | ≤ 0.25
74 | AHQP | ≤ 0.25
75 | EVSC | ≤ 0.25
76 | NFVS | ≤ 0.25
77 | YAFC | ≤ 0.25
78 | PMFD | ≤ 0.25

Row | Variant | enrichment ratio
79 | MTVD | ≤ 0.25
80 | PYDS | ≤ 0.25
81 | HTDM | ≤ 0.25
82 | AFKF | ≤ 0.25
83 | MTIQ | ≤ 0.25
84 | EYYQ | ≤ 0.25
85 | TQAP | ≤ 0.25
86 | LRAW | ≤ 0.25
87 | MNYC | ≤ 0.25
88 | WGYT | ≤ 0.25
89 | LWAM | ≤ 0.25
90 | HDHH | ≤ 0.25
91 | AAEF | ≤ 0.25
92 | LDIC | ≤ 0.25
93 | SNVQ | 7.33
94 | GECW | ≤ 0.25
95 | TNMC | 35.5
96 | YCFV | ≤ 0.25
97 | MDSK | ≤ 0.25
98 | ANYK | ≤ 0.25
99 | MQKM | ≤ 0.25
100 | NGHF | ≤ 0.25
101 | TFDD | ≤ 0.25
102 | FNHI | ≤ 0.25
103 | PDRA | ≤ 0.25
104 | SCRR | ≤ 0.25

Row | Variant | enrichment ratio
105 | VKQF | ≤ 0.25
106 | VMNP | ≤ 0.25
107 | WVHG | ≤ 0.25
108 | QNRC | ≤ 0.25
109 | NMEY | ≤ 0.25
110 | TEYR | ≤ 0.25
111 | MLWR | ≤ 0.25
112 | SVRC | ≤ 0.25
113 | QCII | ≤ 0.25
114 | IQGF | ≤ 0.25
115 | KEYY | ≤ 0.25
116 | YFAA | ≤ 0.25
117 | FMND | ≤ 0.25
118 | EVMW | ≤ 0.25
119 | VNGR | ≤ 0.25
120 | YGDK | ≤ 0.25
121 | DRHY | ≤ 0.25
122 | GTKV | ≤ 0.25
123 | THLM | 12.3
124 | ATFR | ≤ 0.25
125 | YSPH | ≤ 0.25
126 | MLRT | ≤ 0.25
127 | QLVK | ≤ 0.25
128 | MTKC | ≤ 0.25
129 | LTPH | ≤ 0.25
130 | VFQA | ≤ 0.25

Row | Variant | enrichment ratio
131 | VPAP | ≤ 0.25
132 | EVGV | ≤ 0.25
133 | SRIG | ≤ 0.25
134 | EGDK | ≤ 0.25
135 | YQAH | ≤ 0.25
136 | RWGY | ≤ 0.25
137 | NLVK | ≤ 0.25
138 | FIWC | ≤ 0.25
139 | NHWQ | ≤ 0.25
140 | QAPY | ≤ 0.25
141 | YGVV | ≤ 0.25
142 | QASR | ≤ 0.25
143 | LPFR | ≤ 0.25
144 | FQMG | 1.33
145 | SVTA | 5.44
146 | DHHI | ≤ 0.25
147 | HICS | ≤ 0.25
148 | PTCW | ≤ 0.25
149 | RAMA | ≤ 0.25
150 | APRM | ≤ 0.25
151 | SPQW | ≤ 0.25
152 | IPVE | ≤ 0.25
153 | FVMC | ≤ 0.25

From a collection of fitness landscapes (doi:10.1126/science.1257360)
